Read-outs that look alike come from different tables or passages of the source.

The values below come from patent US20220249679A1 (MITSUBISHI TANABE PHARMA, published 2022).

For assay [1], the target named is T1, hCD138 (ELISA of Table 29) (human, UniProt P18827 23-254, limits assumed).
T1 construct: also called human CD138
T1 sequence: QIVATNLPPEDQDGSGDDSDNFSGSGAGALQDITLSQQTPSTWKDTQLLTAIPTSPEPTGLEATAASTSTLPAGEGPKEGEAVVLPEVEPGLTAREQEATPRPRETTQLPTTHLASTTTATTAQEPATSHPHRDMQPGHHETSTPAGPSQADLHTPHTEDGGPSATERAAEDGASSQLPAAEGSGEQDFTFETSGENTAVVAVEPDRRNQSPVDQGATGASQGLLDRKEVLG
The experiment in a line: hCD138 ELISA.

Assay [2] addresses T2, huFGFR3c-Fc (human, UniProt P22607 23-375).
T2 construct: also called recombinant human FGFR3c-Fc
T2 sequence: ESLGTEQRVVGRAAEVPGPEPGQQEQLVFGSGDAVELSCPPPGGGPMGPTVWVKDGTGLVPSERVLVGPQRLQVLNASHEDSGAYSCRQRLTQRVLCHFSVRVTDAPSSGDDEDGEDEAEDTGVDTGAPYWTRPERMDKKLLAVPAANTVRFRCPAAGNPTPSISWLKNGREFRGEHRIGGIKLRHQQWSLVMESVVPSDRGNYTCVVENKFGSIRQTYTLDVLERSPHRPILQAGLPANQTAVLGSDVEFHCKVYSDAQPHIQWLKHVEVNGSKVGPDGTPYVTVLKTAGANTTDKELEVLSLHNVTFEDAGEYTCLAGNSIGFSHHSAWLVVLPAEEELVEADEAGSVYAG
Kind of assay: BIAcore, Fynomer captured on 9E10, huFGFR3c-Fc injected, no FGF1; apparent KD.

Assay [3] has as its target T3, huFGFR3b-Fc (human).
T3 construct: also called recombinant human FGFR3b-Fc
T3 chain: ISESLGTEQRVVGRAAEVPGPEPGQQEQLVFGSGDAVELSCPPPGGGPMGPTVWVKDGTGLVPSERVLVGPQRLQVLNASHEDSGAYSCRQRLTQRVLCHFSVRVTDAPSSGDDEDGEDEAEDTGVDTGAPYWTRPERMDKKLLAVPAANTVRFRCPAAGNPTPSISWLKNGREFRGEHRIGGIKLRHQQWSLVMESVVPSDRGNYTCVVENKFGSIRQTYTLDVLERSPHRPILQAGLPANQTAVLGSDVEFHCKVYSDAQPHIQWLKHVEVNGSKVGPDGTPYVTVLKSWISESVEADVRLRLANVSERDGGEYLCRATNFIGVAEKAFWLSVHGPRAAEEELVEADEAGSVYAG
Kind of assay: BIAcore T200, Fynomer captured on 9E10, FGFR3-Fc injected; apparent KD.

In assay [4] the target is T2, huFGFR3c-Fc. The assay is described as above.
In assay [5] the target is T4, cynoFGFR3c-Fc (cynomolgus monkey, UniProt A0A2K5V1U5 23-376).
T4 construct: also called cyFGFR3c-Fc; cyFGFR3c
T4 sequence: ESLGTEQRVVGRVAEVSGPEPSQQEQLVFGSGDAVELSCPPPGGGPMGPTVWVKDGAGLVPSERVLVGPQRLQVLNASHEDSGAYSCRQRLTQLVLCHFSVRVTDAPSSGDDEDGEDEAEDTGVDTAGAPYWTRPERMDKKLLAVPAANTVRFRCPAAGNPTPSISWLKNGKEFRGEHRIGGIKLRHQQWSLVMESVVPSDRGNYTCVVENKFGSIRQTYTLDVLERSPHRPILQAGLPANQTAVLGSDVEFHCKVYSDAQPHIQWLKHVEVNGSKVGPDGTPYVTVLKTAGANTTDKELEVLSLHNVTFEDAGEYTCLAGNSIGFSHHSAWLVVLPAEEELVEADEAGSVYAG
The assay is described as above.

For assay [6], the target named is T5, huD1-Fc (human, UniProt P22607 23-126).
T5 construct: domain: D1; also called huFGFR3-D1; hFGFR3-D1
T5 sequence: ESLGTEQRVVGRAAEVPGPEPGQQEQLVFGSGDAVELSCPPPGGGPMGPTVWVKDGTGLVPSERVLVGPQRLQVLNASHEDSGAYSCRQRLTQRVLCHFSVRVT
The experiment in a line: ELISA on plate-coated antigen, Fynomer 200 nM with anti-myc 9E10, anti-mouse IgG-HRP.

In assay [7] the target is T6, huD2-Fc (human, UniProt P22607 151-244).
T6 construct: domain: D2; also called huFGFR3-D2; human FGFR3c D2 domain
T6 sequence: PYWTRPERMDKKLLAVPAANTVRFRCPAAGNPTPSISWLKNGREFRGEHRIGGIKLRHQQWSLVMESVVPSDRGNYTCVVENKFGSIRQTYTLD
The assay is described as above.

In assay [8] the target is T2, huFGFR3c-Fc. Kind of assay: BIAcore, Fynomer captured on 9E10, huFGFR3c-Fc injected in presence of 200 nM FGF1; apparent KD.
Assay [9] deals with T5, huD1-Fc. Kind of assay: ELISA on plate-coated antigen, Fynomer 200 nM with anti-myc 9E10, anti-mouse IgG-HRP. The source holds these as a separate data set.
Assay [10] has as its target T6, huD2-Fc. The assay is described as above. This is another data set of the same source.
The target in assay [11] is T5, huD1-Fc. The description is as above. The source holds these as a separate data set.
The target of assay [12] is T6, huD2-Fc. Described as above. The source holds these as a separate data set.
Assay [13] deals with T5, huD1-Fc. The assay is described as above. This is another data set of the same source.
In assay [14] the target is T6, huD2-Fc. The assay is described as above. This is another data set of the same source.
Assay [15] addresses T5, huD1-Fc. The assay is described as above. This is another data set of the same source.
For assay [16], the target named is T6, huD2-Fc. The assay is described as above. The source holds these as a separate data set.
For assay [17], the target named is T5, huD1-Fc. The assay is described as above. This is another data set of the same source.
In assay [18] the target is T6, huD2-Fc. The description is as above. This is another data set of the same source.

B1: hF6-LC-G7 (bispecific antibody, human IgG1, kappa)
heavy: QVQLVQSGAEVVKPGASVKLSCKASGYTFTSYYLYWVKKAPGQGLDWIGEIYPRSGGTNINEKFLSRVTLTADTSTSTAYLELSSLTSEDTAVYYCTRSLLYWGQGTTLTVSS[letters of human IgG1 constant region left out]
light: DVVMTQTPLSLSVTPGQPASISCKSSQSLLASDGKTYLNWLLQRPGQSPKRLIYLVSKLDSGVPNRFSGSGSGTDFTLQISRVEAEDVGLYYCWQGAHFPFTFGSGTKLEIKRTVAAPSVFIFPPSDEQLKSGTASVVCLLNNFYPREAKVQWKVDNALQSGNSQESVTEQDSKDSTYSLSSTLTLSKADYEKHKVYACEVTHQGLSSPVTKSFNRGECGGGGSGGGGSGGGGSGVTLFVALYDYEVYGPTPMLSFHKGEKFQILKGGSGPYWEARSLTTGETGLIPSNYVAPVDSIQ
notes: IgG1/kappa
In the case of B1, in assay [1], a half-maximal response (EC50) required 0.98 nM.

B2: hF6-LN-G7 (bispecific antibody, human IgG1, kappa)
heavy: QVQLVQSGAEVVKPGASVKLSCKASGYTFTSYYLYWVKKAPGQGLDWIGEIYPRSGGTNINEKFLSRVTLTADTSTSTAYLELSSLTSEDTAVYYCTRSLLYWGQGTTLTVSS[letters of human IgG1 constant region left out]
light: GVTLFVALYDYEVYGPTPMLSFHKGEKFQILKGGSGPYWEARSLTTGETGLIPSNYVAPVDSIQGGGGSGGGGSGGGGSDVVMTQTPLSLSVTPGQPASISCKSSQSLLASDGKTYLNWLLQRPGQSPKRLIYLVSKLDSGVPNRFSGSGSGTDFTLQISRVEAEDVGLYYCWQGAHFPFTFGSGTKLEIKRTVAAPSVFIFPPSDEQLKSGTASVVCLLNNFYPREAKVQWKVDNALQSGNSQESVTEQDSKDSTYSLSSTLTLSKADYEKHKVYACEVTHQGLSSPVTKSFNRGEC
notes: IgG1/kappa
Molecule B2 gave an EC50 in [1] of 1.07 nM.

B3: FF44L65G12 (designed binder, not shown: small tags and cut ends)
chain: GVTLFVALYDYEVYGPTPMLSFHKGEKFQILRGGQGPYWEARSLTTGETGLIPSNYVAPVDSIQ
notes: Fynomer
Turning to B3, the Kd in [2] stood at 0.14 nM; in assay [3], 0.69 nM; in [4], 0.685 nM; in [5], 0.11 nM; in [8], 0.12 nM. Also, the binding result in assay [6] and in assay [7] was “no binding (tested: 200 nM)” throughout.

B4: FF43L65D5 (designed binder, not shown: small tags and cut ends)
chain: GVTLFVALYDYEVYGPTPMLSFHKGEKFQILRKGKGPYWEARSLATGETGLIPSNYVAPVDSIQ
notes: Fynomer
As to B4, the Kd in assay [2] came out at 0.06 nM; in assay [3], 0.335 nM; in assay [4] it was 0.23 nM; in assay [5] it was 0.16 nM; in assay [8], 0.07 nM. Further, the binding result in [9] and in assay [10] was “no binding (tested: 200 nM)” each time.

B5: FF44L65B7 (designed binder, not shown: small tags and cut ends)
chain: GVTLFVALYDYEVYGPTPMLSFHKGEKFQILRRGSGPYWEARSLTTGETGLIPSNYVAPVDSIQ
notes: Fynomer
With B5, the Kd in assay [2] came to 0.17 nM; in assay [3] it was 0.1 nM; in [4], 0.25 nM; in assay [5] it was 0.26 nM; in [8] it was 0.13 nM. Moreover, the binding result in assay [11] and in assay [12] was “no binding (tested: 200 nM)” in each case.

B6: FF48L66G7 (designed binder, not shown: small tags and cut ends)
chain: GVTLFVALYDYEVYGPTPMLSFHKGEKFQILKGGSGPYWEARSLTTGETGLIPSNYVAPVDSIQ
notes: Fynomer; also called FF48L66G7 (G7)
As for B6, the Kd came out at 0.17 nM in assay [2]; 0.26 nM in assay [3]; 0.19 nM in [4]; 0.21 nM in [5]; 0.13 nM in assay [8]. The binding result in assay [13] and in assay [14] was “no binding (tested: 200 nM)” each time.

B7: FF44L65G7 (designed binder, not shown: small tags and cut ends)
chain: GVTLFVALYDYEVYGPTPMLSFHKGEKFQILRGGDGPYWEARSLTTGETGLIPSNYVAPVDSIQ
notes: Fynomer
Take B7: the Kd was determined as 0.32 nM in assay [2]; 0.47 nM in assay [3]; 0.335 nM in assay [4]; 0.28 nM in [5]; 0.23 nM in assay [8]. Further, the binding result in assay [15] and in [16] was “no binding (tested: 200 nM)” in each case.

B8: FF2L4C3 (designed binder, not shown: small tags and cut ends)
chain: GVTLFVALYDYEVYGPTPMLSFHKGEKFQILNSSEGPYWEARSLTTGETGLIPSNYVAPVDSIQ
notes: Fyn SH3-derived polypeptide (Fynomer) expressed in E. coli from pQE12; also called parental Fynomer
As for B8, the Kd was found to be 4 nM in [2]; 4.7 nM in [3]; 4.6 nM in assay [4]; 5.9 nM in [5]; 3.8 nM in assay [8]. In addition, the binding result in [17] and in assay [18] was “no binding (tested: 200 nM)” throughout.
